Consider one molecule from the supplement of paper PMC8728848.

The other results are listed elsewhere or left out.

What all share (assay): glycan array binding signal (z-score within array); higher = stronger binding
Holding throughout (conditions): glycan notation: IUPAC condensed, linker removed

Test [1] concerns the target Neu5Ac(a2-8)Neu5Ac(a2-8)Neu5Ac(a2-8)Neu5Ac(a2-3)[GalNAc(b1-4)]Gal(b1-4)Glc. An outline of the steps:
(§1)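 Glycan array binding is given as a within-array Z-score, which can be read as non-binding when negative. The arrays, 3228 of them, came from the Consortium for Functional Glycomics database and were retained only where the protein sequence was available. Z-scores were averaged across arrays of the same protein sequence at different concentrations or buffers and across linkers.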

For test [2], the target named is Neu5Ac9Ac(a2-6)Gal(b1-4)GlcNAc. An outline of the steps:
as §1

The target of test [3] is Neu5Gc(a2-3)Gal(b1-3)GlcNAc. An outline of the steps:
as §1

The target of test [4] is Neu5Gc(a2-3)Gal(b1-3)[Fuc(a1-4)]GlcNAc. An outline of the steps: as §1
In test [5] the target is Neu5Gc(a2-3)Gal(b1-4)Glc. An outline of the steps: as §1
Test [6] concerns the target Neu5Gc(a2-3)Gal(b1-4)GlcNAc. An outline of the steps:
as §1

The target in test [7] is Neu5Gc(a2-3)Gal(b1-4)[Fuc(a1-4)]GlcNAc. An outline of the steps:
as §1

In test [8] the target is Neu5Gc(a2-6)Gal(b1-4)GlcNAc. An outline of the steps:
as §1

Test [9] deals with Neu5Gc(a2-6)GalNAc. An outline of the steps: as §1

B1: chitinase 3-like protein 2 (Homo sapiens) (protein)
chain: YKLVCYFTQWSQDRQEPGKFTPENIDPFLCSHLIYSFASIENNKVIIKDKSEVMLYQTINSLKTKNPKLKILLSIGGYLFGSKGFHPMVDSSTSRLEFINSIILFLRNHNFDGLDVSWIYPDQKENTHFTVLIHELAEAFQKDFTKSTKERLLLTAGVSAGRQMIDNSYQVEKLAKDLDFINLLSFDFHGSWEKPLITGHNSPLSKGWQDRGPSSYYNVEYAVGYWIHKGMPSEKVVMGIPTYGHSFTLASAETTVGAPASGPGAAGPITESSGFLAYYEICQFLKGAKITRLQDQQVPYAVKGNQWVGYDDVKSMETKVQFLKNLNLGGAMIWSIDMDDFTGKSCNQGPYPLVQAVKRSLGSL
On to B1, for which the “glycan array binding signal (z-score)” value in test [1] was 1.51; in test [2], -0.229; in test [3], -0.254; in test [4] it was -0.268; in [5], -0.258; in test [6] it was 0.093. The results for the “glycan array binding signal (z-score)” value in test [7], in [8] and in test [9] were -0.279, 0.002 and -0.217, respectively.
